{"source": "the supplement of paper PMC3334620", "note": "Over roughly 33,000 sequences, “E-score (-0.5 to 0.5)” has its median near -0.017; the highest 2% begin near 0.3. This is one part of the list.", "data": [{"target": "T1, Sut1 (UniProt P53032)", "T1 sequence": "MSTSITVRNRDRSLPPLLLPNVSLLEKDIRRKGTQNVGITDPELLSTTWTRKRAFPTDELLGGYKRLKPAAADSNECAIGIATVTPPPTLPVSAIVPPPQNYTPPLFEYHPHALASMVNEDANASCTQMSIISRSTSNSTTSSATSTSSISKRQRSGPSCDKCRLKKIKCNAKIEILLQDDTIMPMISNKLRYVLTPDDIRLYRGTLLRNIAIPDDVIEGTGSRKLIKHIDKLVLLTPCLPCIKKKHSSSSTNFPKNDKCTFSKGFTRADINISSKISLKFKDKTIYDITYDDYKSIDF", "assay": "PBM E-score (8-mer binding enrichment) (E-score (-0.5 to 0.5)); higher = stronger / more preferred TF binding; most listed sequences are background and not binding sites", "conditions": "protein concentration: 200 nM; construct: GST-full length", "outline": "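Detection of bound protein used fluorescent anti-GST, with scans normalised by masliner. The proteins were GST-tagged yeast transcription factors applied at about 100-200 nM to universal all-10-mer Agilent arrays made double-stranded by primer extension. Each ungapped eight-base word, pooled with its reverse complement, was scored with an E-score from the Universal PBM Analysis Suite.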", "values": [{"sequence": "ACGTCGCG", "PBM E-score": -0.178}, {"sequence": "GACGATCA", "PBM E-score": -0.0846}, {"sequence": "CAGTACGC", "PBM E-score": 0.0614}, {"sequence": "CTGACTCA", "PBM E-score": -0.214}, {"sequence": "ATAGTTTC", "PBM E-score": 0.185}, {"sequence": "ACTAGATA", "PBM E-score": 0.22}, {"sequence": "CAATGTGG", "PBM E-score": -0.163}, {"sequence": "CCTAGGAA", "PBM E-score": -0.0522}, {"sequence": "ATAAAGTG", "PBM E-score": 0.148}, {"sequence": "CTGAAGCC", "PBM E-score": -0.0969}, {"sequence": "AATGGAAT", "PBM E-score": 0.0767}, {"sequence": "CCTTTACG", "PBM E-score": 0.00031}, {"sequence": "GATGTCTA", "PBM E-score": -0.0645}, {"sequence": "AAGTTATT", "PBM E-score": 0.231}, {"sequence": "CAGTCGAA", "PBM E-score": -0.135}, {"sequence": "GATCTGAA", "PBM E-score": -0.0287}, {"sequence": "GGCCATCA", "PBM E-score": -0.137}, {"sequence": "ACCTTCAT", "PBM E-score": 0.0859}, {"sequence": "ACGCTAAA", "PBM E-score": 0.083}, {"sequence": "ATTTTGTC", "PBM E-score": 0.0653}, {"sequence": "GGCGAGAC", "PBM E-score": -0.294}, {"sequence": "CGATAACC", "PBM E-score": 0.148}, {"sequence": "GCCTCTAA", "PBM E-score": -0.216}, {"sequence": "CCTTTCCA", "PBM E-score": 0.00391}, {"sequence": "ATCCATCA", "PBM E-score": -0.0141}, {"sequence": "GGTCAGAC", "PBM E-score": -0.257}, {"sequence": "AATACTCC", "PBM E-score": 0.199}, {"sequence": "CAGTGCCC", "PBM E-score": -0.256}, {"sequence": "CTTATCCC", "PBM E-score": -0.108}, {"sequence": "GAACTAAC", "PBM E-score": 0.104}, {"sequence": "CGTCGGGC", "PBM E-score": -0.251}, {"sequence": "AACTGGAT", "PBM E-score": 0.118}, {"sequence": "AATCTATC", "PBM E-score": 0.164}, {"sequence": "ACTGAGGC", "PBM E-score": 0.00487}, {"sequence": "CTGCCCGC", "PBM E-score": -0.151}, {"sequence": "GACCTTTA", "PBM E-score": 0.00807}, {"sequence": "GCACGGGA", "PBM E-score": -0.2}, {"sequence": "GAAGCGTA", "PBM E-score": 0.0447}, {"sequence": "CGGTTATA", "PBM E-score": 0.00682}, {"sequence": "AGGAATTG", "PBM E-score": -0.0346}, {"sequence": "GGCCGCGA", "PBM E-score": -0.208}, {"sequence": "CAGCTGAA", "PBM E-score": -0.109}, {"sequence": "CCGAGTAG", "PBM E-score": 0.112}, {"sequence": "ATCCCGGG", "PBM E-score": -0.07}, {"sequence": "ATCTCCGA", "PBM E-score": 0.477}, {"sequence": "CGCACAAC", "PBM E-score": -0.108}, {"sequence": "TCTTCACA", "PBM E-score": 0.0757}, {"sequence": "ACTGAGTC", "PBM E-score": -0.0434}, {"sequence": "GTGATATA", "PBM E-score": 0.0152}, {"sequence": "CACCTAGC", "PBM E-score": -0.157}, {"sequence": "ATGAAGCC", "PBM E-score": 0.0311}, {"sequence": "ACTAACCT", "PBM E-score": 0.128}, {"sequence": "TGTCACAA", "PBM E-score": 0.195}, {"sequence": "CTATACCC", "PBM E-score": -0.14}, {"sequence": "CTTACCAA", "PBM E-score": 0.124}, {"sequence": "GCCTGTCC", "PBM E-score": -0.154}, {"sequence": "CCAACACG", "PBM E-score": 0.0805}, {"sequence": "GTACCGCA", "PBM E-score": 0.102}, {"sequence": "AATGAATA", "PBM E-score": 0.235}, {"sequence": "CGGACGAG", "PBM E-score": 0.0125}, {"sequence": "GATGCTGA", "PBM E-score": -0.212}, {"sequence": "ACGGAAAG", "PBM E-score": 0.25}, {"sequence": "GACGCTAC", "PBM E-score": -0.101}, {"sequence": "ACGACCCC", "PBM E-score": -0.265}, {"sequence": "CTACTAGC", "PBM E-score": 0.117}, {"sequence": "GGCCCCCA", "PBM E-score": -0.361}, {"sequence": "ACTCAAAC", "PBM E-score": 0.0752}, {"sequence": "AACAATTG", "PBM E-score": -0.0164}, {"sequence": "GGGGGGTA", "PBM E-score": -0.215}, {"sequence": "GACTTACC", "PBM E-score": 0.102}, {"sequence": "CTCAGCGC", "PBM E-score": -0.109}, {"sequence": "CAGATGAC", "PBM E-score": -0.251}, {"sequence": "AACGGCAT", "PBM E-score": 0.111}, {"sequence": "ACAACAGT", "PBM E-score": 0.0455}, {"sequence": "ATCCGCGC", "PBM E-score": -0.0272}, {"sequence": "TCCGCAGA", "PBM E-score": 0.133}, {"sequence": "AATCTCGG", "PBM E-score": 0.147}, {"sequence": "GATCAACA", "PBM E-score": -0.02}, {"sequence": "CGTGAGAC", "PBM E-score": -0.0834}, {"sequence": "CACGAGCA", "PBM E-score": -0.0524}, {"sequence": "AAACCTGG", "PBM E-score": -0.112}, {"sequence": "CCCGCGGC", "PBM E-score": -0.0819}, {"sequence": "AAATCACG", "PBM E-score": 0.182}, {"sequence": "CCCTCAGC", "PBM E-score": -0.298}, {"sequence": "AGCCCCGG", "PBM E-score": 0.22}, {"sequence": "GGCCTCAA", "PBM E-score": -0.109}]}]}
